# Laboratory results: PubChem BioAssay AID1508642 (National Center for Advancing Translational Sciences (NCATS), 2021)
# Among all 43,000 compounds or so, about 200 (0.47%) were called active. Roughly 12% stayed inconclusive and do not appear here. Calls come from the whole dose curve; as a rule, active = well fitted cell-killing curve with a large enough effect; inconclusive = small, poorly fitted or top-dose-only effect, or effect the other way; inactive = flat fitted curve, though single readings scatter. Some of the results follow.
# Test: Cell viability qHTS assay in S16 Pmp22-F2sN cells; note: nearly all actives have a fitted effect of over 65% in size
# Conditions: S16 Pmp22-F2sN Schwann cells (luciferase reporters placed in the Pmp22 gene) viability, CellTiter-Glo, 24 h; series mostly up to 57.5 µM; activity change, negative = cytotoxicity: at the top concentration
# How it was run: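 CellTiter-Glo counter-screen, qHTS, 1536-well. Cells: S16(c9) Pmp22-F2sN, 500-1,000/well in DMEM + 10% FBS. Cpd 23 nL pin transfer, 24 h, 37C/5% CO2. Read: luminescence, CCD imager.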
# % is set by controls: 0 for no effect and ±100 for the full control effect; potency is the fitted concentration of half-maximal effect.
SMILES,"activity change, negative = cytotoxicity",Potency
COc1ccccc1NC(=O)c1ccc(COc2ccc(C)c(C)c2)o1,inactive: 11.8%,
O=C(Nc1cccc(C(F)(F)F)c1)c1ccc2c(c1)nnn2C1CCCC1,inactive: 28%,
COc1ccc(S(=O)(=O)NCCc2nnc3ccc(SCC(=O)Nc4ccccc4C)nn23)cc1,inactive: -1.58%,
COC(=O)c1cc2oc(C)cc2n1Cc1ccc(Br)cc1F,inactive: 7.72%,
CCC(Oc1ccccc1-c1nnc(-c2ccccc2)o1)C(=O)Nc1ccc(C(C)=O)cc1 (centres undefined),inactive: -6.36%,
COC(=O)c1ccc(NC(=O)CSc2ccc(-c3sc(-c4ccccc4)nc3C)nn2)cc1,inactive: -11.5%,
COc1ccc2nc(N(Cc3cccnc3)C(C)=O)sc2c1,inactive: 13.9%,
O=C(NCc1cccnc1)c1nn(-c2ccc(Cl)cc2)nc1CO,inactive: -6.27%,
COc1cc(Cl)c(C)cc1Nc1nc2ccccc2c2nnc(C)n12,inactive: 5.58%,
COc1ccc(C2CC(=O)N3CN(C4CCCCC4)CSC3=C2C#N)c(OC)c1 (centres undefined),inactive: 6.68%,
O=C(NC1CC(=O)N(c2ccc(F)cc2)C1)c1ccco1 (centres undefined),inactive: 10.5%,
COc1ccccc1C1CC(=O)NC(C)=C1C(=O)OC1CCCCCC1 (centres undefined),inactive: 5.45%,
COc1ccc(Nc2ncc3c(n2)CCN(Cc2ccccc2C)C3)c(OC)c1,inactive: 4.99%,
Cc1nn2c(=O)cc(COC(=O)c3ccc(NC(=O)COc4ccc(C)c(C)c4)cc3)nc2s1,inactive: -0.137%,
O=c1n(Cc2ccccc2Cl)c2ccccc2c2nc(-c3ccccc3)nn12,inactive: 2.36%,
CC(C)NC(=O)c1ccc(Cn2c(SCC(N)=O)nc3ccccc3c2=O)cc1,inactive: 0.633%,
CCOc1ccc(C2CC(=O)Nc3nc(SCc4ccccc4C)[nH]c(=O)c32)cc1OC (centres undefined),inactive: -10%,
Cc1ccc(CCNC(=O)c2ccc3nc(N4CCC(C)CC4)sc3c2)cc1,inactive: 20.5%,
COC(=O)C(C)Sc1ccc2nnc(CCNS(=O)(=O)c3ccc(C)cc3)n2n1 (centres undefined),inactive: 4.47%,
Cc1ccc(C)c(NC(=O)n2ncc3cc(Cl)ccc32)c1,inactive: 5.23%,
Cc1ncc(CO)c2c1Oc1nc(-c3ccccc3Cl)nc(SCc3ccccc3F)c1C2,inactive: -29.2%,
COCCCNC(=O)Cn1cnc2sc(C)c(S(=O)(=O)N3CCC(C)CC3)c2c1=O,inactive: -3.33%,
O=C(NCc1ccccc1)c1ccc(NC(=O)N2CC3CCCN3c3ccccc32)cc1 (centres undefined),inactive: 8.07%,
Cn1c(=O)oc2cc(S(=O)(=O)CCC(=O)N3CCN(c4cccc(Cl)c4)CC3)ccc21,inactive: -0.23%,
CCNC(=O)C1CCN(S(=O)(=O)c2ccc3c(c2)CCCN3C(C)=O)CC1,inactive: 1.51%,

SMILES,"activity change, negative = cytotoxicity",Potency
CCOc1cc(C(=O)Nc2ccc(-c3cn4cccnc4n3)cc2)cc(OCC)c1OCC,inactive: 10%,
Cc1nc2ccccn2c(=O)c1NC(=O)c1ccc(F)c(F)c1,inactive: -1.76%,
Cc1cccc(NC(=O)C2CCCN2S(=O)(=O)c2ccc3nc(-c4ccccc4)[nH]c3c2)c1 (centres undefined),inactive: -22.1%,
Cc1ccc2c(c1)c1c(c(=O)n(-c3ccccc3)c(=O)n1CC(=O)NCC1CCCO1)n2C (centres undefined),inactive: 6.16%,
CCCCNC(=O)CCCCCn1c(=O)[nH]c2ccccc2c1=O,inactive: -2.82%,
Cc1ccc(S(=O)(=O)c2nnn3c2nc(NCc2ccc4c(c2)OCO4)c2sccc23)cc1C,inactive: 4.74%,
Cc1ccc(C)c(N2CCN(S(=O)(=O)c3cc(C(=O)Nc4ccc(Oc5ccccc5)cc4)ccc3F)CC2)c1,inactive: -19.9%,
Cc1ccc(NC(=O)CN2C(=O)c3cccnc3Oc3ccc(Cl)cc32)cc1,inactive: 0.0976%,
Cc1ccccc1OCCSc1nc2ccc(NC(=O)c3cccc(F)c3)cc2s1,inactive: 1.08%,
COc1cc2ncc3c(-c4ccc(C)cc4)nn(-c4ccc(F)cc4F)c3c2cc1OC,inactive: -22.9%,
COc1ccc(Cn2ccnc2SCC(=O)Nc2nc3ccccc3s2)cc1,inactive: -7.67%,
COc1ccc(NC(=O)c2cc3c(s2)-c2c(C)cccc2OC3)cc1Cl,,active: 28.2 µM
CC(=O)c1ccc(NC(=O)c2ccc3c(c2)N(Cc2cccc(Cl)c2)C(=O)c2ccccc2S3=O)cc1 (centres undefined),inactive: 6.93%,
Cc1ccccc1-c1nc(CN2CCC(C(=O)NCc3ccc(F)cc3)CC2)c(C)o1,inactive: -1.45%,
CCOC(=O)c1c(C)n(-c2ccccc2)c2ccc(OC(=O)COc3ccc(Cl)cc3)cc12,inactive: -0.925%,
Cc1ccn2c(Nc3ccc4c(c3)OCCO4)c(-c3ccc(C)o3)nc2c1,inactive: -23.2%,
Cc1cc(Nc2ccccc2C)n2nc(Cc3ccc(Cl)cc3)nc2n1,inactive: 11.6%,
Cc1c(C(=O)NCc2ccccc2Cl)sc2ncnc(N(C)C3CCCCC3)c12,inactive: -16.7%,
COc1ccc(-c2cn3nc(N4CCCC(C(=O)NCc5ccc(Cl)cc5)C4)sc3n2)cc1 (centres undefined),inactive: 7.94%,
Cc1ccc(CCNC(=O)C2CCCN(c3nnc(C)c4c(C)n(-c5ccccc5)nc34)C2)cc1 (centres undefined),inactive: -3.07%,
CC1=C(C(=O)NCc2ccccc2F)C2(CCCCC2)OC1=O,inactive: -9.5%,
CC1=C(c2ccc(F)cc2)S(=O)(=O)N=C1N1CCC(C(=O)NCCc2cccc(C)c2)CC1,inactive: -1.72%,
COc1cccc(-c2nc(CS(=O)(=O)CC(=O)NCc3cccc(Cl)c3)c(C)o2)c1,inactive: 3.06%,
Cc1ccc(CSc2ncc(Cl)c(C(=O)Nc3nnc(C)s3)n2)cc1,inactive: -0.768%,
O=C(Nc1ccccc1Cl)N1CCC(CN2CCCC2)CC1,inactive: 6.26%,

SMILES,"activity change, negative = cytotoxicity",Potency
Cc1ccc(NC(=O)CC2Oc3ccccc3NC2=O)cc1C (centres undefined),inactive: -5.53%,
COc1ccc(-c2cnnn2-c2ccc(NC(=O)c3ccccc3OC)cc2)cc1,inactive: -9.07%,
Cc1c(C(=O)NCc2cccc(Cl)c2)sc2nc3n(c(=O)c12)CCCC3,inactive: -7.19%,
COc1ccc(CCNC(=O)CN2C(=O)COc3ccc(S(=O)(=O)N4CCCC4)cc32)c(OC)c1,inactive: 7.34%,
COc1ccc(-c2nc3sc(CCNC(=O)C(=O)Nc4cccc(NC(C)=O)c4)c(C)n3n2)cc1,inactive: -0.618%,
Nc1nn(-c2ccccc2)nc1C(=O)OCc1ccc(Cl)cc1,inactive: 4.09%,
Cn1c(=O)n(Cc2c(F)cccc2Cl)c(=O)c2c1nc1n2CCN1c1ccc(F)cc1,inactive: 15.5%,
Cc1ccc(Cn2c(=O)n(Cc3ccc(C(=O)NC4CCN(Cc5ccccc5)CC4)cc3)c(=O)c3ccccc32)cc1,inactive: 16.7%,
CCc1cccc(NC(=O)C2CCCN2S(=O)(=O)c2ccc3nc(-c4ccccc4)[nH]c3c2)c1 (centres undefined),inactive: -4.94%,
CC(=O)c1ccc(NC(=O)CCn2cccn2)cc1,inactive: 8.27%,
Cc1ccc(-n2c(C)nc3c(cnn3-c3ccccc3)c2=O)cc1,inactive: 19.7%,
CCc1ccc(CNC(=O)c2cccc(-n3c(C)nc4cccnc43)c2)cc1,inactive: -29.5%,
CCCc1ccc(OCc2ccc(C(=O)Nc3ccccc3C(=O)OC)o2)cc1,inactive: 6.06%,
CCc1ccc(NC(=O)Cn2c(=O)n(-c3cccc(OC)c3)c(=O)c3c(C)c(C(=O)N(C)C)sc32)cc1,inactive: 3.66%,
Cc1ccc2oc(C(=O)N3CCC(c4nc5ccccc5s4)CC3)c(C)c2c1,inactive: 4.62%,
CN1C(=O)Cc2cc(S(=O)(=O)NCc3ccccc3Cl)ccc21,inactive: -7.34%,
O=C(c1ccc(Br)cc1)N(Cc1ccco1)c1ccccn1,inactive: 10.8%,
Cc1ccc(C)c(S(=O)(=O)c2nnn3c2nc(NC2CCCC2)c2sccc23)c1,inactive: -29.5%,
CCOc1c(CNCCSc2nnnn2C)cccc1OC,inactive: 12.6%,
COc1ccc(OC)c([C@@H]2Nc3ccc(C(=O)O)cc3[C@@H]3C=CC[C@@H]32)c1,inactive: -6.26%,
CCc1cccc(NC(=O)c2cc3c(=O)oc4ccc(C)cc4c3s2)c1,inactive: 4.77%,
COc1ccc(CNC(=O)C(CC(C)C)NS(=O)(=O)c2ccc3c(c2)oc(=O)n3C)cc1 (centres undefined),inactive: 3.28%,
Cc1ccc(S(=O)(=O)c2cn(Cc3ccccc3)c3cc(N4CCCC4)c(F)cc3c2=O)c(C)c1,inactive: -16.3%,
CSc1nnc(NC(=O)c2cc(=O)c3cc(C)c(C)cc3o2)s1,inactive: 2.51%,
CC1CCc2c(sc3nnn(Cc4ccccc4Cl)c(=O)c23)C1 (centres undefined),inactive: 2.63%,

SMILES,"activity change, negative = cytotoxicity",Potency
CCOc1ccc(S(=O)(=O)c2cc3cccc(OCC)c3oc2=O)cc1,inactive: 8.3%,
CCc1ccccc1N(C)C(=O)c1nn(-c2ccc(OC)cc2)c(=O)c2c1c1ccccc1n2C,inactive: -4.46%,
Cc1cccc(NC(=O)c2ccc3oc(=O)c(S(=O)(=O)c4ccc(F)cc4)cc3c2)c1C,inactive: 2.78%,
CC(C)NC(=O)CSc1cn(CC(=O)N2CCCCCC2)c2ccccc12,inactive: 4.06%,
Cc1ccc(-c2nnc3c4ccccc4c(-c4ccccc4)nn23)cc1,inactive: 6.71%,
CCOc1ccccc1NCc1nnc2n1CCCCC2,inactive: 4.11%,
COc1ccc(N2CCN(C(=O)c3cnc(N4CCOCC4)c4ccccc34)CC2)cc1,inactive: -10.8%,
CCOc1ccccc1Oc1ncnc2c1oc1ccccc12,inactive: -18.2%,
CC1CCC(NC(=O)c2ccc3c(c2)N(Cc2ccccc2F)C(=O)c2ccccc2S3(=O)=O)CC1 (centres undefined),inactive: 1.69%,
CCOc1ccccc1CNCc1c(C(=O)O)n(Cc2ccccc2)c2cc(OC)ccc12,inactive: -0.0154%,
CCOc1ccccc1C1C(C(=O)Nc2ccccc2)=C(C)Nc2nc(-c3ccccc3)nn21 (centres undefined),inactive: -5.36%,
COc1ccccc1OCc1nc2ccccc2n1Cc1ccccc1,inactive: 8.11%,
Cc1cccc(N2CCN(Cc3nnc(-c4cccc(Br)c4)o3)CC2)c1C,inactive: -11.4%,
CCc1ccc(-c2nc(CS(=O)CC(=O)NCc3ccc(F)cc3)c(C)o2)cc1 (centres undefined),inactive: 5.84%,
Cc1ccc(Cl)cc1NC(=O)CN1C(=O)c2ccccc2Sc2ncccc21,inactive: 2.8%,
Cc1ccc(CNS(=O)(=O)c2c(C)nc3sc(C)cn3c2=O)cc1,inactive: 1.34%,
CCCn1cnc2cc(NC(=O)c3cc(OC)c(OC)c(OC)c3)ccc21,inactive: 0.369%,
COc1ccccc1NC(=O)Cn1c(=O)oc2cc(S(=O)(=O)NCc3ccccc3)ccc21,inactive: 9.43%,
CCCOC(=O)c1cccc(NC(=O)CSc2nnc3cc(C)c4ccccc4n23)c1,inactive: 2.96%,
Cc1c(Cl)cccc1NC(=O)Cn1c(=O)cc(C)c2c(C)nn(-c3cccc(F)c3)c21,inactive: -1.34%,
COc1ccc(NC(=O)c2cc(-c3ccc(F)cc3)no2)cc1OC,inactive: -3.23%,
COc1ccccc1Cc1nc2ccccc2nc1SCC(=O)Nc1c(C)cccc1C,inactive: 17.7%,
O=C(Cn1ncn2cccc2c1=O)NCc1cccc(Br)c1,inactive: -5.3%,
COc1ccc(N(CC(C)C)S(=O)(=O)c2nnc(NC(=O)c3ccco3)s2)cc1,inactive: -0.502%,
